{
  "source": "paper PMC4336329",
  "about": "(PLoS ONE, 2015)",
  "note": "The whole screen tested about 310,000 compounds, of which about 2,200 (0.71%) showed an effect of 50% or more. Effects have a minus sign here. Some of the results follow.",
  "data": [
    {"target": "human ether-à-go-go-related gene (hERG) potassium channel (human, UniProt Q12809)", "sequence (Q12809 whole entry, looked up)": "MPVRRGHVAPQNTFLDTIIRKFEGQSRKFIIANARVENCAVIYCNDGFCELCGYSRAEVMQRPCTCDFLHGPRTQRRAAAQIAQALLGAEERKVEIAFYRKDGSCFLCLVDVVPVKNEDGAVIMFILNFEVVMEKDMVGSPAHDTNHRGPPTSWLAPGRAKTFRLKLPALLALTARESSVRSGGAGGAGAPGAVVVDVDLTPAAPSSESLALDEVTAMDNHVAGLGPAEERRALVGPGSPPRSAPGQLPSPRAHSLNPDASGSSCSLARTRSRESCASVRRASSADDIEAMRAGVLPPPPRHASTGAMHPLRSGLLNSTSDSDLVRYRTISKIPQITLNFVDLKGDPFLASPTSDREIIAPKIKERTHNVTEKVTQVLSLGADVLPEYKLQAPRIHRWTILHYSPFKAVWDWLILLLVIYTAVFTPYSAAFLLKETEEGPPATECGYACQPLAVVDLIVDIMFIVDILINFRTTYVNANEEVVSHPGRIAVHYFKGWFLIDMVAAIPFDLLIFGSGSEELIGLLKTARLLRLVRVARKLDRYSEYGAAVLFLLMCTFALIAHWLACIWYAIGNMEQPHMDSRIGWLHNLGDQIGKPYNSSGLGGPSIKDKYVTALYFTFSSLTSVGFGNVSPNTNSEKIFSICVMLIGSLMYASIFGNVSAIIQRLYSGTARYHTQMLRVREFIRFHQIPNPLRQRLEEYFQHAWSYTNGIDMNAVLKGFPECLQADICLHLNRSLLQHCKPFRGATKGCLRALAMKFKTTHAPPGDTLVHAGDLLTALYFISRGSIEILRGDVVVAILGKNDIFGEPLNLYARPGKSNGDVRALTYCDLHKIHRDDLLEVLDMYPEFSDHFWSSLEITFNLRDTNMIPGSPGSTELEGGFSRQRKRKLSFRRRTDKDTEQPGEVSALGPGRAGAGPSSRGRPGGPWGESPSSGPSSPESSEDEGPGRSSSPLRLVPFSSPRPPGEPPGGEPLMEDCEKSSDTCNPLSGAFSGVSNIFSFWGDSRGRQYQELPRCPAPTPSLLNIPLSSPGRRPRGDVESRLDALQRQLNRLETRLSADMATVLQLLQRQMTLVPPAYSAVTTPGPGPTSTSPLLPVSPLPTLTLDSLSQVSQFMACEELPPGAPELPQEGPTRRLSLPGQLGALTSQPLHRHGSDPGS", "test": "primary screen, population patch clamp on CHO cells stably expressing hERG", "units": {"hERG current change (%, negative = inhibition) at 1uM": "%"}, "values": [
      {"smiles": "O=C1CNC(=O)/C1=C/c1ccc(O)cc1", "hERG current change (%, negative = inhibition) at 1uM": 20.7},
      {"smiles": "CN(Cc1ccc(Cl)cc1Cl)C(=O)CNC(=O)c1ccc2c(c1)OCO2", "hERG current change (%, negative = inhibition) at 1uM": 4.69},
      {"smiles": "O=C1CN=C(c2ccc(Br)cc2)c2oc3ccccc3c2N1", "hERG current change (%, negative = inhibition) at 1uM": 11.5},
      {"smiles": "COc1ccc(O)c(CN2CCCC(C(=O)c3sccc3C)C2)c1", "note": "(centres unmarked)", "hERG current change (%, negative = inhibition) at 1uM": 25.8},
      {"smiles": "Cl.O=C(CCCN1CCC(O)(c2cccc(C(F)(F)F)c2)CC1)c1ccc(F)cc1", "hERG current change (%, negative = inhibition) at 1uM": -80.9},
      {"smiles": "CCOC(=O)c1cnc2ccc(OCC)cc2c1N(C)Cc1ccccc1", "hERG current change (%, negative = inhibition) at 1uM": -2.4},
      {"smiles": "COc1cc(NC(=O)COC(=O)/C=C/c2c(C)nn(-c3ccc(F)cc3)c2Cl)cc(OC)c1", "hERG current change (%, negative = inhibition) at 1uM": 10.4},
      {"smiles": "CCOC(=O)CN1NC2(CCCC(C)C2)NC1=S", "note": "(centres unmarked)", "hERG current change (%, negative = inhibition) at 1uM": 15.1},
      {"smiles": "Cc1ccc(NC(=S)NCCN(C2CCCCC2)C2CCCC2)cc1", "hERG current change (%, negative = inhibition) at 1uM": -10.5},
      {"smiles": "C=CCSc1ncccc1C(=O)NCCc1ccccc1", "hERG current change (%, negative = inhibition) at 1uM": 17.2},
      {"smiles": "COc1ccc(N(CC(=O)Nc2cccc(C(=O)O)c2)S(=O)(=O)c2c(C)noc2C)cc1", "hERG current change (%, negative = inhibition) at 1uM": -7.35},
      {"smiles": "COc1ccc(CCC(=O)OC(C)C(=O)c2ccc(C)cc2)cc1", "note": "(centres unmarked)", "hERG current change (%, negative = inhibition) at 1uM": 6.03},
      {"smiles": "CCOC(=O)Cc1ccc(NCc2ccc(Cl)cc2)cc1.Cl", "hERG current change (%, negative = inhibition) at 1uM": 12.5},
      {"smiles": "CCN1CCN(CCCNC(=O)Cn2cc3c(n2)CCCC3)CC1", "hERG current change (%, negative = inhibition) at 1uM": 8.32},
      {"smiles": "O=C(CN1C(=O)COc2ccccc21)N1CCCc2ccccc21", "hERG current change (%, negative = inhibition) at 1uM": -5.12},
      {"smiles": "CCCCCCC(CC(=O)NCc1cccnc1)CC(=O)NCc1cccnc1", "hERG current change (%, negative = inhibition) at 1uM": 7.33},
      {"smiles": "CCOC(=O)CSc1cc(CS(=O)c2ccc(Cl)cc2)nc(-c2ccccc2)n1", "note": "(centres unmarked)", "hERG current change (%, negative = inhibition) at 1uM": 9.75},
      {"smiles": "COc1ccccc1NC(=S)N(Cc1ccc(C(=O)O)cc1)Cc1ccc(OC)c(OC)c1", "hERG current change (%, negative = inhibition) at 1uM": -0.285},
      {"smiles": "COc1ccc2nc(Nc3nc(C)c(C(C)=O)s3)sc2c1", "hERG current change (%, negative = inhibition) at 1uM": 2.68},
      {"smiles": "O=C(Cn1[nH]c(=O)c2ccccc2c1=O)N1CCN(S(=O)(=O)c2ccc(Cl)cc2)CC1", "hERG current change (%, negative = inhibition) at 1uM": 4.3},
      {"smiles": "COc1ccc(CN(Cc2ccc(OC)cc2)S(=O)(=O)c2ccc(-n3cnnn3)c(C)c2)cc1", "hERG current change (%, negative = inhibition) at 1uM": 5.82},
      {"smiles": "CCOC(=O)c1sc(NC(=O)CSc2ncccn2)nc1C", "hERG current change (%, negative = inhibition) at 1uM": 6.84},
      {"smiles": "CCOC(=O)N1CCN(C(=O)C(=O)c2cn(CC(=O)N3CCCCCC3)c3ccccc23)CC1", "hERG current change (%, negative = inhibition) at 1uM": -2.57},
      {"smiles": "Cc1ccc(C(=O)NCC(=O)OCC(=O)N2CCCc3ccccc32)cc1", "hERG current change (%, negative = inhibition) at 1uM": -4.81},
      {"smiles": "COc1ccc(/C=C/C(=O)NC(=S)NN2CCCCC2c2cccnc2)cc1", "note": "(centres unmarked)", "hERG current change (%, negative = inhibition) at 1uM": 7.31},
      {"smiles": "CCOc1ccccc1/C=N/Nc1nc(C)cc(=O)[nH]1", "hERG current change (%, negative = inhibition) at 1uM": 7.76},
      {"smiles": "CCn1c(C)c(C(C)=O)c(N2CCCCC2)nc1=S", "hERG current change (%, negative = inhibition) at 1uM": 1.29},
      {"smiles": "CC1CCCCN1CCCNC(=O)Cn1c(=O)c2cccn2c2ccccc21", "note": "(centres unmarked)", "hERG current change (%, negative = inhibition) at 1uM": 9.96},
      {"smiles": "COc1ccc(NC(=O)C2CCN(S(=O)(=O)c3c(C)noc3C)CC2)cc1", "hERG current change (%, negative = inhibition) at 1uM": 14.1},
      {"smiles": "CCOC(=O)c1ccccc1NC1c2ccccc2C(=O)N1C1CCN(C(=O)OCC)CC1", "note": "(centres unmarked)", "hERG current change (%, negative = inhibition) at 1uM": -10.2},
      {"smiles": "N#CC1=C(N)Oc2c(c(=O)oc3ccccc23)C1c1ccccc1OC(=O)c1cccs1", "note": "(centres unmarked)", "hERG current change (%, negative = inhibition) at 1uM": 5.51},
      {"smiles": "C=CCn1c(NC)cc(=O)n(C)c1=O", "hERG current change (%, negative = inhibition) at 1uM": 13.5},
      {"smiles": "O=C1c2ccccc2C2(c3ccccc3)N1CCN2C(=O)C(Cl)(Cl)Cl", "note": "(centres unmarked)", "hERG current change (%, negative = inhibition) at 1uM": 9.11},
      {"smiles": "O=C(Cn1c(-c2ccccn2)nc2ccccc21)N/N=C/c1cccnc1", "hERG current change (%, negative = inhibition) at 1uM": 1.91},
      {"smiles": "O=C(NC1CCCc2ccccc21)c1ccccc1", "note": "(centres unmarked)", "hERG current change (%, negative = inhibition) at 1uM": 20.5},
      {"smiles": "CN1CCN(S(=O)(=O)c2ccc(-c3ccc(Cl)cc3)cc2)CC1", "hERG current change (%, negative = inhibition) at 1uM": 5.93},
      {"smiles": "CCOc1ccc(NC(=O)CCCN2C(=S)NC(C)(C)CC2C)cc1", "note": "(centres unmarked)", "hERG current change (%, negative = inhibition) at 1uM": 5.52},
      {"smiles": "CCCn1c(O)c(N=Nc2ccc3ccccc3n2)c2ccccc21", "hERG current change (%, negative = inhibition) at 1uM": 22.1},
      {"smiles": "O=C(Cn1c(=O)[nH]c2ccccc2c1=O)N1CCN(c2cccc(Cl)c2)CC1", "hERG current change (%, negative = inhibition) at 1uM": 8.49},
      {"smiles": "COC(=O)c1cnn(-c2cc(Oc3cccc(C)c3)ncn2)c1N", "hERG current change (%, negative = inhibition) at 1uM": 9.43},
      {"smiles": "COc1ccccc1N/C(N)=N/c1nc(CSc2nc3ccccc3s2)cc(=O)[nH]1", "hERG current change (%, negative = inhibition) at 1uM": 9.23},
      {"smiles": "CCOC(=O)C1CCCN(C(=O)CNC(=O)Cn2ccc3ccccc3c2=O)C1", "note": "(centres unmarked)", "hERG current change (%, negative = inhibition) at 1uM": 1.37},
      {"smiles": "CCCc1cc(C(=O)Nc2ccn(Cc3ccc(C)cc3)n2)no1", "hERG current change (%, negative = inhibition) at 1uM": 2.17},
      {"smiles": "Cc1ccc(/C=C/c2ccc(=O)n(Cc3ccccc3Cl)n2)cc1", "hERG current change (%, negative = inhibition) at 1uM": 6.56},
      {"smiles": "Cc1cc(Br)cc(Br)c1OCC(=O)NNC(=O)CCC(=O)NCc1ccccc1", "hERG current change (%, negative = inhibition) at 1uM": 18.8},
      {"smiles": "COc1ccccc1NS(=O)(=O)c1cc(N)ccc1N1CCCCC1", "hERG current change (%, negative = inhibition) at 1uM": 3.73},
      {"smiles": "CCN(CC)S(=O)(=O)c1cccc(-c2nnc(SCC(=O)c3cc(C)n(C)c3C)o2)c1", "hERG current change (%, negative = inhibition) at 1uM": 4.87},
      {"smiles": "COc1cc(/C=N/Nc2ccc(F)cc2F)cc(OC)c1OC", "hERG current change (%, negative = inhibition) at 1uM": 1.85},
      {"smiles": "CCCc1cc(=O)[nH]c(SCC(=O)N2CCCc3ccccc32)n1", "hERG current change (%, negative = inhibition) at 1uM": 11.8},
      {"smiles": "COc1ccccc1NC(=O)c1ccccc1S(=O)(=O)c1ccc([N+](=O)[O-])cc1", "hERG current change (%, negative = inhibition) at 1uM": 10.5},
      {"smiles": "COc1ccc(/C=N/NC(=O)Nc2cccc3nsnc23)cc1OC", "hERG current change (%, negative = inhibition) at 1uM": 5.82},
      {"smiles": "CCC(C)c1ccc(NC(=O)COc2c(F)c(F)c(C(F)(F)F)c(F)c2F)cc1", "note": "(centres unmarked)", "hERG current change (%, negative = inhibition) at 1uM": -25.4},
      {"smiles": "c1ccc2c(CSCCc3ccncc3)cccc2c1", "hERG current change (%, negative = inhibition) at 1uM": 3.43},
      {"smiles": "COCCN1Cc2cccc(C(=O)NC(C)CCc3ccco3)c2C1=O", "note": "(centres unmarked)", "hERG current change (%, negative = inhibition) at 1uM": 3.15},
      {"smiles": "CCc1c(C(=O)Nc2ncn(Cc3cccc(C)c3)n2)csc1C", "hERG current change (%, negative = inhibition) at 1uM": -2.33},
      {"smiles": "C=CCOc1ccc(C2C(C(=O)c3ccco3)=C(O)C(=O)N2c2nnc(C)s2)cc1", "note": "(centres unmarked)", "hERG current change (%, negative = inhibition) at 1uM": 12.2}
    ]}
  ]
}
